Results taken from PubChem BioAssay AID686978 (National Center for Advancing Translational Sciences (NCATS), 2013).
Hit rate of the full screen: of about 420,000 compounds, about 64,000 (15%) were called active. Inconclusive means that the source gave no clear call. Such entries were picked first, then a sample of the others. The call rests on the fitted dose curve; in most records, active means well fitted inhibition curve with a large enough effect; inconclusive means small, poorly fitted or top-dose-only effect; inactive means flat fitted curve, though single readings scatter. No potency is given beside an inconclusive call; the fits are too rough.

Test: qHTS for Inhibitors of human tyrosyl-DNA phosphodiesterase 1 (TDP1): qHTS in cells in absence of CPT; further: nearly all actives have a fitted effect of over 55% in size
Settings: DT40 Tdp1-/- hTDP1 cells, no CPT, ATP luminescence, 48 h; activity change, negative = growth inhibition: at 46.2 µM (top of the series) unless noted
Procedure, shortened: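 Compound effects on proliferation are scored in DT40 Tdp1-/-;hTDP1 cells in the absence of CPT. ATP levels (CellTiter-Glo luminescence) are recorded after a ≥48 hr, 37 °C incubation.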
On the % scale 0 is the no-effect control and ±100 the full control effect; potency means the concentration at half of the fitted maximal effect; tags describe the fitted curve by direction and shape.

SMILES	Potency	activity change, negative = growth inhibition
CCCN1C2CCCC1CC(NC(=S)Nc1cccc(C)c1)C2 (stereo unspecified)	inconclusive [inhibitor, single point]	
Cc1cc(O)c(C(C)C)cc1NC(=S)Nc1cc(C(C)C)c(O)cc1C	inconclusive [inhibitor, partial curve]	
COc1ccc2ccccc2c1CNCCN1CCOCC1	inactive	
COc1ccc(OCc2ccc(C(=O)N3CCOCC3)cc2)cc1	inactive	
C=CCn1c(O)c(N=NC(=S)Nc2ccc(OC)c(Cl)c2)c2ccccc21	active: 2.59 µM	
CC(C)Cn1cnc2c(SCc3ccccc3F)nc(N)nc21	inconclusive [inhibitor, single point]	
Cc1cc(C)n(-c2nc(Nc3ccccc3C(F)(F)F)nc(-n3nc(C)cc3C)n2)n1	active: 14.6 µM	
Nc1nc(SCC(=O)Nc2ccc(Cl)c(S(=O)(=O)N3CCOCC3)c2)n[nH]1	inactive	
CCN(CC(=O)Nc1c(F)cccc1F)C(=O)c1ccc(N2CCOCC2)c([N+](=O)[O-])c1	inconclusive [inhibitor, partial curve]	
CN1CCN(C(=O)c2cc3nc(-c4ccc(Cl)cc4)cc(C(F)(F)F)n3n2)CC1	inconclusive [inhibitor, single point]	
CCOC(=O)N1CCC(NC(=O)c2cc3c(C)nc4ccccc4c3o2)CC1	active: 20.6 µM	
COCCN(C(=O)COC(=O)CCS(=O)(=O)c1ccccc1)c1c(N)n(Cc2ccccc2)c(=O)[nH]c1=O	inactive	
COc1ccc(-c2cc(-c3ccccc3)c(C#N)c(SCC(O)CS(=O)(=O)Cc3ccc(Cl)cc3)n2)cc1 (stereo unspecified)	inconclusive [inhibitor, full curve]	
CCOC1=C2CN(S(=O)(=O)c3ccc(C)cc3)[C@H](c3ccccc3)C[C@@H]2N(S(C)(=O)=O)[C@H](c2ccccc2)C1	inactive	
O=C(CS(=O)(=O)c1cccc2nsnc12)N1CCN(c2cccc(Cl)c2)CC1	inconclusive [inhibitor, single point]	
CCCNC(=O)c1ccc(N2CCC3(CC2)CC(c2ccccc2)=NO3)c(NC(=O)c2cccc(C)c2)c1	inconclusive [inhibitor, partial curve, poor fit]	
CCOC(=O)c1c(C)[nH]c(C(=O)OCC(=O)NCc2ccc(C)cc2)c1C	inconclusive [inhibitor, single point]	
CCOC(=O)/C(=N/Nc1ccccc1)N1CCCc2ccccc21	inconclusive [inhibitor, partial curve]	
C/C(CCc1ccccc1)=N\NC(=O)C(=O)Nc1cccc(Cl)c1		inconclusive: -36.1% [inhibitor]
CCOC(=O)c1sc2cccc(F)c2c1S(=O)(=O)NCc1ccccc1Cl	inactive	
Cc1nn(-c2c(Cl)cc(Cl)cc2Cl)c(=O)c2ccccc12	inconclusive [inhibitor, single point]	
CCCN1CCN(c2ncnc3sc(C(=O)Nc4ccc(C(C)C)cc4)c(C)c23)CC1	inconclusive [inhibitor, single point]	
CC(=O)Nc1nonc1-c1nnc(SCC(=O)Nc2ccc(C)cc2)n1-c1ccccc1	inconclusive [inhibitor, partial curve]	
COc1cc(/C=C(/C#N)C(=O)NCCc2c[nH]c3ccccc23)ccc1OCc1ccccc1F	inconclusive [inhibitor, partial curve]	

SMILES	Potency	activity change, negative = growth inhibition
Cc1ccc2c(c1)sc1nc(=O)ccn12	inconclusive [inhibitor, single point]	
O=C(N/N=C\c1cccs1)c1sccc1-n1cccc1	inactive	
CCCCNC(=O)c1cc(-c2ccccc2)sc1N	active: 16.4 µM	
C[C@H]1CN([C@@H](C)CO)C(=O)c2cc(NS(=O)(=O)c3ccc(Cl)cc3)ccc2O[C@@H]1CN(C)CC1CCCCC1	inconclusive [inhibitor, single point]	
CCCN(CC(=O)Nc1ccccc1C)C(=O)CCCc1c[nH]c2ccccc12	inconclusive [inhibitor, single point]	
Cc1ccc(S(=O)(=O)Oc2cccc(/C=N/Nc3ccc(C(=O)O)cc3)c2)cc1	inactive	
COC(=O)C(Cc1ccccc1)NC(=O)CC(C)CC(=O)Nc1ccc(C)cc1 (stereo unspecified)	inactive	
Cc1ccc(C(c2sc3nc(-c4ccco4)nn3c2O)N2CCCC2)cc1 (stereo unspecified)	inactive	
Cc1ccc(N(CC(=O)NCCc2ccc(Cl)cc2)S(=O)(=O)c2c(C)noc2C)cc1	active: 14.6 µM	
O=C(CN1C(=O)CCC1=O)Nc1nc(-c2ccc(Oc3ccccc3)cc2)cs1	inconclusive [inhibitor, partial curve]	
CC(=O)Nc1cccc(C(=O)Nc2cc(C(F)(F)F)ccc2-n2cncn2)c1	inconclusive [inhibitor, single point]	
COc1ccc(S(=O)(=O)N2CCN(c3cnccn3)CC2)cc1	inactive	
COc1cc(SC)ccc1C(=O)Nc1ccc(S(=O)(=O)Nc2nccc(C)n2)cc1	inconclusive [inhibitor, single point]	
CC(C)(C)NC(=O)C1(C)CCC(=O)N1CCCn1ccnc1 (stereo unspecified)		inconclusive: -30.4% [inhibitor]
C=CCNc1cccc(Br)c1	inactive	
N#Cc1c(Nc2ccccc2)[n+]([O-])c2ccc(Cl)cc2[n+]1[O-]	inconclusive [inhibitor, full curve, poor fit]	
CCN(C(=O)Nc1ccccc1)c1ccccc1		inconclusive: -31.1% [inhibitor]
CCN(c1ccccc1)S(=O)(=O)c1ccc(Cl)c(NC(=O)COC(=O)c2cccc(OC)c2O)c1	active: 18.4 µM	
COc1ccc(CN(C)C(=O)CSc2nnc(C3CC3)n2C2CC2)cc1	inactive	
COc1c(O)cc2oc(-c3ccc(O)c(O)c3)cc(=O)c2c1O	inconclusive [inhibitor, single point]	
Cc1cccc(CNc2nc(-c3ccc4c(c3)OCO4)nc3ccccc23)c1	active: 23.1 µM	
CC(C)OC(=O)C(C)(C)Oc1ccc(C(=O)c2ccc(Cl)cc2)cc1	inconclusive [inhibitor, partial curve]	
CCCCc1ccc(S(=O)(=O)NC(=O)C2(C)CCN2C(=O)c2c(C)noc2C)cc1 (stereo unspecified)	inactive	
Cc1ccc(NC(=O)CN2C(=O)c3ccccc3Sc3ccc(C(=O)N4CCOCC4)cc32)cc1F	inconclusive [inhibitor, single point]	

SMILES	Potency	activity change, negative = growth inhibition
Cc1cc(C)c(S(=O)(=O)N2CCCCC2CCNC(=O)C(=O)NCC2CCCO2)c(C)c1 (stereo unspecified)	inconclusive [inhibitor, partial curve]	
COc1ccc(CN2CCc3c(c(=O)n4ncc(C(=O)N5CCN(c6ccccc6OC)CC5)c4n3C)C2)cc1	active: 11.6 µM	
Cc1cccc(NC(=O)Cn2nnc(-c3nc(-c4ccncc4)no3)c2N)c1		inconclusive: -32% [inhibitor]
CCOC(=O)[C@@H]1CSCCS(=O)(=O)N1	active: 18.4 µM	
COC(=O)c1ccc(Cl)cc1NC(=O)N1CC2CCCN2c2ccccc21 (stereo unspecified)	inconclusive [inhibitor, single point]	
CC(=O)Nc1ccc(S(=O)(=O)N(C)CC(=O)OCC(=O)c2ccc[nH]2)cc1	inactive	
COc1ccc(S(=O)(=O)NCc2ccc3c(c2)CCN3C(=O)c2ccccc2)cc1OC	inconclusive [inhibitor, single point]	
Cc1ccc(S(=O)(=O)N(C)C)cc1-n1c(SCC(=O)Nc2ccc(F)cc2)nc2ccccc2c1=O	inconclusive [inhibitor, single point]	
CC1Cc2cc(S(=O)(=O)N3CCC(C(N)=O)CC3)ccc2N1C(=O)C1CC1 (stereo unspecified)	inactive	
COc1ccc(OCC(O)Cn2c(N3CCCCC3)nc3c2c(=O)n(C)c(=O)n3C)cc1 (stereo unspecified)	active: 16.4 µM	
O=C(CSc1ccc([N+](=O)[O-])cc1)Nc1ccccc1N1CCOCC1	active: 20.6 µM	
CC1(c2ccc3ccccc3c2)NC(=O)N(CC(=O)N2CCN(c3ccccc3O)CC2)C1=O (stereo unspecified)	active: 13 µM	
O=c1cc(CN2CCN(c3ccc(O)cc3)CC2)nc2scc(-c3ccccc3)n12	inconclusive [inhibitor, single point]	
Cc1cc(Nc2ccccc2F)n2nc(-c3ccccc3)nc2n1	inconclusive [inhibitor, single point]	
O=C(Nc1ccccc1C(=O)O)c1ccc(Br)c(S(=O)(=O)NCc2ccccc2)c1	inconclusive [inhibitor, single point]	
O=C1Nc2ccccc2OC1CC(=O)N1CCCC1 (stereo unspecified)	inactive	
Cc1ccccc1-c1nc(CS(=O)CC(=O)NC(C)CCc2ccccc2)c(C)o1 (stereo unspecified)		inconclusive: -32.9% [inhibitor]
CCOC(=O)C1CCN(c2cc3c(cc2NC(=O)c2ccc(Cl)cc2)n(C)c(=O)n3C)CC1	active: 2.59 µM	
O=C(Nc1ccc2c(c1)OCO2)N1CCN(c2ccccc2Cl)CC1	inconclusive [inhibitor, single point]	
Cc1ccc(NC(=O)/C=C/c2ccco2)nc1	active: 0.0058 µM	
O=C(CN1CCCC1)Nc1sc2c(c1C(=O)Nc1ccccc1)CCCC2	inactive	
COc1ccc(OCC(O)CN(C2CCCCC2)C2CCCCC2)cc1 (stereo unspecified)	inconclusive [inhibitor, single point]	
COc1ccc2c(c1OC)C(=O)N1N=C(c3ccc(Cl)cc3)CC21 (stereo unspecified)	inconclusive [inhibitor, single point]	
